The campaign covered roughly 340,000 compounds. About 12,000 (3.5%) were called active. Inconclusive means that the source gave no clear call. Such entries were picked first, then a sample of the others. Calls follow the shape of the dose curve; as a rule, active = well fitted inhibition curve with a large enough effect; inconclusive = small, poorly fitted or top-dose-only effect, or another doubt; inactive = no such curve, though single readings can be large or run the other way. Potencies of inconclusive entries are left out as doubtful fits.
Experiment: qHTS Assay for Inhibitors of Hepatitis C Virus (HCV)
Details: Huh7.5.1 HCVcc-Cre (HCVcc is cell-culture hepatitis C virus) infection, luciferase reporter, 44 h; activity change, negative = inhibition: at 41.8 µM (top of the series) unless noted
Method in brief: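 1,000 cells/well; 4 h culture; + compound; + HCVcc-Cre (~0.5 moi); 44 h; luciferase substrate, RT 15 min; read 15 sec.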
% is scaled to controls: 0 for no effect and ±100 for the full control effect; potency is read from the fitted curve at half-maximal effect; tags tell the direction and shape of the fitted curve.

Compound | activity change, negative = inhibition | Potency
CCOC(=O)[C@@H]1[C@H]2COc3ccc(Br)cc3[C@@H]2N2C(=O)N(c3ccc(OC)cc3)C(=O)[C@@]12C | inactive: 8.15% | –
CCN(CC)CCC(c1ccc2c(c1)OCO2)c1c(OC)cc(OC)c2c(-c3ccccc3)cc(=O)oc12 (stereo not drawn) | – | inconclusive [inhibitor, full curve]
Cc1ccc(CS(=O)(=O)Cc2ccc(C(=O)NCCc3ccccc3)o2)cc1 | inactive: -10.2% | –
COc1ccccc1C1CC(c2c(-c3ccccc3)c3cc(Cl)ccc3[nH]c2=O)=NN1S(C)(=O)=O (stereo not drawn) | – | inconclusive [inhibitor, single point]
O=c1cc(-c2ccccc2)nc(SCc2ccccc2F)[nH]1 | inactive: 2.58% | –
CC[C@]12c3[nH]c4ccccc4c3CCN1C(=O)C(CC(=O)NCCc1ccccn1)C[C@@H]2C(=O)N1CCN(C(=O)C2CC2)CC1 (stereo partly drawn) | – | inconclusive [inhibitor, full curve, poor fit]
CCC1(C)Cc2ccccc2-c2nc(-c3ccccc3)oc(=O)c21 (stereo not drawn) | – | inconclusive [inhibitor, partial curve]
Cc1cccn2c(=O)c3cc(C(=O)NCc4ccccc4)c(=N)n(CCCN4CCOCC4)c3nc12 | – | inconclusive [inhibitor, partial curve]
COc1ccc2c(c1)OC[C@H]1[C@H]2N2C(=O)CN(CCc3c[nH]c4ccccc34)C(=O)[C@@]2(C)[C@H]1c1ccccc1 | – | inconclusive [inhibitor, single point]
Cc1ccc(CN2CCN(CC(=O)N/N=C/c3ccccc3F)CC2)cc1 | inactive: 2.56% | –
COc1c(N2CCN(C(=S)NC3CC4CCC3C4)C(C)C2)c(F)cc2c(=O)c(C(=O)O)cn(C3CC3)c12 (stereo not drawn) | – | inconclusive [inhibitor, single point]
COc1ccccc1NC(=O)COC(=O)c1ccc2c(c1)OCCO2 | – | inconclusive [inhibitor, full curve, poor fit]
O=C(CSc1nnnn1-c1ccc2c(c1)OCCO2)c1cccc2c1OCCO2 | – | inconclusive [inhibitor, single point]
Cc1ccc(CCNC(=O)CCNS(=O)(=O)c2ccc3c(c2)oc(=O)n3C)cc1 | – | inconclusive [inhibitor, single point]
C/C=C/c1ccc(OCC(=O)Nc2ccc(OC)c(OC)c2)c(OC)c1 | – | inconclusive [inhibitor, full curve, poor fit]
CCOc1ccc(N(CC(=O)Nc2ccc(C)c(C)c2)S(C)(=O)=O)cc1 | inactive: 8.08% | –
CSCCC(NC(=O)c1ccc(Cl)cc1Cl)C(=O)NNC(=O)c1ccncc1 (stereo not drawn) | inactive: -1.86% | –
FC(F)(F)c1cnc(N2CCN(C(=S)NCc3ccccc3)CC2)c(Cl)c1 | inactive: -26.6% | –
COc1ccc2cc(C(=O)C3CCCN(C(=O)c4ccnn4C)C3)ccc2c1 (stereo not drawn) | – | inconclusive [inhibitor, single point]
COc1ccccc1C(=O)NCC(c1cccs1)N1CCc2ccccc21 (stereo not drawn) | – | inconclusive [inhibitor, partial curve]
C=C(C)c1cccc(C(C)(C)NC(=O)Nc2ccc(C(C)=O)cc2)c1 | – | inconclusive [inhibitor, partial curve]
COc1ccc(CCNc2oc(COc3ccc(F)cc3)nc2C#N)cc1 | – | inconclusive [inhibitor, single point]
COc1ccc2c(c1OC)C(=O)N1C2SC(C)(C)[C@H]1C(=O)NCC(C)C (stereo partly drawn) | inactive: 14.1% | –

Compound | activity change, negative = inhibition | Potency
CCC(C)N1C(=O)S/C(=C/c2ccc3c(c2)n(C)c(=O)n3C)C1=O (stereo not drawn) | – | inconclusive [inhibitor, partial curve]
O=C1c2ccccc2C(O)(c2ccccc2)N1c1ccc([N+](=O)[O-])cc1Cl (stereo not drawn) | inactive: 3.29% | –
Cn1ccc(NS(=O)(=O)c2cc(Br)ccc2Br)n1 | inactive: 14.8% | –
COc1ccc(-c2noc(CN3CCCC(OCc4ccccn4)C3)n2)cc1 (stereo not drawn) | – | inconclusive [inhibitor, single point]
COc1ccc(Oc2coc3cc(OC(=O)c4cccs4)ccc3c2=O)cc1 | inactive: -6.95% | –
CCN(C[C@H]1N[C@@](Cc2ccccc2)(C(=O)OC)[C@H]2C(=O)N(Cc3ccccc3)C(=O)[C@@H]12)S(=O)(=O)c1ccc(OC(F)(F)F)cc1 | – | inconclusive [inhibitor, full curve, poor fit]
COC1CCN(Cc2cn(Cc3ccccc3)nc2-c2cc3ccccc3o2)CC1 | inactive: 4.14% | –
Cc1ccc(CC2SC(=O)NC2=O)cc1Cl (stereo not drawn) | inactive: 8% | –
COc1ccc(OC)c(NS(=O)(=O)c2cc3c4c(c2)CCN4C(=O)CC3)c1 | – | inconclusive [inhibitor, single point]
Cc1ccc(NC(=S)N(CCCN2CCOCC2)Cc2ccco2)cc1 | inactive: 3.67% | –
CCOP(=O)(c1ccccc1)c1nc(-c2ccccc2Cl)oc1N1CCCCC1 (stereo not drawn) | – | inconclusive [inhibitor, partial curve]
O=C(Nc1ccc(N2CCOCC2)cc1)c1ccc2ncsc2c1 | – | inconclusive [inhibitor, single point]
O=C(c1cccc(S(=O)(=O)N2CCc3ccccc32)c1)N1CCc2ccccc2C1 | – | inconclusive [inhibitor, single point]
C#CCN1C(=O)S/C(=C\c2ccc(N3CCOCC3)cc2C)C1=O | inactive: -0.229% | –
CC(C)CCn1c(=O)c2ccccc2n2c(=S)[nH]nc12 | – | inconclusive [inhibitor, single point]
CN1CCC(OC(=O)COc2ccccc2)CC1 | inactive: 12.8% | –
CC1CCc2[nH]c3ccc(C(=O)NCC4CCCO4)cc3c2C1 (stereo not drawn) | – | inconclusive [inhibitor, partial curve]
CNc1nc(SCC(=O)Nc2ccc(Cl)c(Cl)c2)nc(N2CCOCC2)n1 | – | inconclusive [inhibitor, partial curve]
Cn1nc(CC(=O)NC2CCCCCC2)c2ccccc2c1=O | – | active: 3.16 µM
O=C(O)CCc1ccc(-c2ccccc2)o1 | inactive: -17.7% | –
CCOc1ccc(NC(=S)N2CCCN(Cc3cc(C)ccc3C)C2)cc1 | – | inconclusive [inhibitor, partial curve]
Cc1ccc2cccc(NC(=S)NC(=O)c3ccccc3)c2n1 | – | inconclusive [inhibitor, single point]
Cc1cc(NS(=O)(=O)c2ccc(NC(=O)C(C(C)C)N3C(=O)c4ccccc4C3=O)cc2)nc(C)n1 (stereo not drawn) | inactive: 10.2% | –

Compound | activity change, negative = inhibition | Potency
Cc1ccc(-n2c(C)cc(C(=O)COC(=O)C3=NNC(=O)CC3)c2C)cc1 | inactive: 5.92% | –
COC(=O)C1=C(C)N(C)C(=S)NC1c1ccc(OC)cc1OC (stereo not drawn) | inactive: -5.42% | –
CCOC(=O)CSc1nc2cc(OC)ccc2cc1C#N | – | inconclusive [inhibitor, partial curve]
CCOC(=O)c1c(C)oc2ccc(OC(=O)N3CCOCC3)cc12 | – | inconclusive [inhibitor, single point]
OC[C@@H]1[C@@H](c2ccccc2)C(c2ccccc2)=NN1c1ccccc1 | inactive: -16.8% | –
CCOC(=O)C1C(=O)NC(N2CCOCC2)=NC1c1ccco1 (stereo not drawn) | – | inconclusive [inhibitor, single point]
COc1ccc(C(=O)O/N=C/c2c(C(F)(F)F)nn(C)c2SCc2ccccc2Cl)cc1 | – | inconclusive [inhibitor, single point]
COc1cc(C(=O)Oc2ccccc2/C=N/NC(=O)c2ccc(Cl)cc2Cl)cc(OC)c1OC | – | inconclusive [inhibitor, single point]
COc1ccc2c(COC(=O)c3ccc(C)c(S(=O)(=O)N4CCOCC4)c3)cc(=O)oc2c1 | – | inconclusive [inhibitor, partial curve]
COc1c(C)cc(Br)cc1C(=O)Nc1ccccc1N1CCN(C(=O)c2ccccc2)CC1 | – | inconclusive [inhibitor, single point]
CC1CCCN(S(=O)(=O)c2ccc(C(=O)Nc3ccccc3-c3nc4ccccc4[nH]3)cc2)C1 (stereo not drawn) | – | inconclusive [inhibitor, partial curve]
O=C(C(Cl)Cl)N1CCN(Cc2ccc3c(c2)OCO3)CC1 | – | inconclusive [inhibitor, single point]
CCN(CC(=O)Nc1cccc(OC)c1)C(=O)c1cccc(S(=O)(=O)N2CCc3ccccc32)c1 | inactive: -12.1% | –
COc1ccc(CCN2C(=O)c3[nH]nc(-c4ccccc4O)c3C2c2ccc(C)cc2)cc1OC (stereo not drawn) | – | inconclusive [inhibitor, single point]
Cc1cccc(C)c1N(CC(=O)Nc1cc(Cl)ccc1Oc1ccccc1)S(C)(=O)=O | – | inconclusive [inhibitor, single point]
CCCCn1c(N)c(N(CCC(C)C)C(=O)CSc2nc3ccccc3n2C)c(=O)[nH]c1=O | – | active: 10 µM
O=C(c1ccco1)N1CCN(Cc2cccc(F)c2)CC1 | inactive: 8.99% | –
CCCNC(=O)COC(=O)c1ccccc1C(=O)c1ccc(Cl)c([N+](=O)[O-])c1 | – | inconclusive [inhibitor, single point]
O=C(O)CNC(=O)C1(N2C(=O)c3ccccc3C2=O)CCCC1 | – | inconclusive [inhibitor, single point]
COc1cc(C(=O)OCC(=O)NC23CC4CC(CC(C4)C2)C3)cc(OC)c1OC | – | inconclusive [inhibitor, single point]
O=C(O)c1ccc2c(c1)C(=O)/C(=C\c1ccco1)C2=O | inactive: -1.94% | –
COC(=O)c1sc(S(=O)(=O)N2CCN(c3ccc(OC)cc3)CC2)c(C(=O)OC)c1C | – | inconclusive [inhibitor, single point]

Source: PubChem BioAssay AID651820 (National Center for Advancing Translational Sciences (NCATS), 2012)
